The results in this text go back to the supplement of paper PMC10338343.

± gives the standard deviation. The entries are a selection whose mix differs from that of the whole data set. Bounds are passed on as bounds.

For the assay, the system named is MIWI (PIWIL1) piRISC loaded with L1MC piRNA (30 nt). Briefly: pre-steady-state target cleavage rate (min^-1); MIWI and MILI are mouse PIWI proteins and EfPiwi is from a freshwater sponge; tags in brackets are library labels; higher = faster piRNA-guided slicing of the target. The settings on record: guide: L1MC piRNA 5'p-UAACUAAAUACUAUGCAAGCUGUAGGUCCU; auxiliary factor: 500 nM mouse GTSF1. The method, boiled down: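 Cleave-'n-Seq used a transcribed, DNA-blocked target RNA library at 0.1 nM and active affinity-purified piRISC with one synthetic guide at 1 nM, with or without 500 nM GTSF1 partner protein, in HEPES–potassium acetate buffer at 33 °C for 0–8 or 0–960 min. Uncleaved targets were sequenced and normalised to depth and to weakly complementary targets, and three trials were pooled with k3 capped at 0.0001 min^-1. The pre-steady-state cleavage rate was estimated by a burst-and-steady-state fit.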
For the sequence UCCUGGAUGUCGAACGAUAGAUUUUAGUUA, the “pre-steady-state target cleavage rate” value was less than 0.0001.

For UCCACCUAGUGCUUGCAUAGUAUUUACAAA, the “pre-steady-state target cleavage rate” value was determined as 0.0829 ± 0.016.

With UCGACCUACAGCUUGCAUAGUAUAAACAAA, the “pre-steady-state target cleavage rate” value amounted to 0.362 ± 0.051.

As for UGGACCUACAGCUUCGUUAGUAUUUAGUAA, the “pre-steady-state target cleavage rate” value was 0.0272 ± 0.0054.

Turning to UCGACCUACAGCUUGCAAUAGUAUUUAGUUA, the “pre-steady-state target cleavage rate” value was 0.105 ± 0.022.

Turning to AGGACCUACAGCUUGCAUAGUAUAAACAAA, the “pre-steady-state target cleavage rate” value worked out at 0.353 ± 0.068.

Regarding “UCCUGGUACAGCUUGCAUAGUAAAAUCAAA [g9:g24:cont:t1A]”, the “pre-steady-state target cleavage rate” value was determined as 0.0403 ± 0.015.

Take UGGACCUACAGCUUGCAUAGAUUUUAGAAA: the “pre-steady-state target cleavage rate” value amounted to 0.0691 ± 0.023.

As for UCCACCUACAGCUACGAUAGUAUUUAGUAA, the “pre-steady-state target cleavage rate” value came to 0.0791 ± 0.022.

For the sequence AGGACCUACAGCUUCCAUAGAAUUUAGUUA, the “pre-steady-state target cleavage rate” value turned out to be 0.0697 ± 0.022.

As for AGGACCUACAGCUUGCAUAGUAUUAUGAAA, the “pre-steady-state target cleavage rate” value is 0.526 ± 0.098.

In the case of UCCUGGAUGUCGAUCAUAGUAUUUAGUUA, the “pre-steady-state target cleavage rate” value is 0.00647 ± 0.0034.

UCCUCCUACAGCUUGCAUAGUAAUUAGAAA: the “pre-steady-state target cleavage rate” value amounted to 0.33 ± 0.055.

Consider UGGACCUACUCGUUGCAUAGUAUUUACAAA, for which the “pre-steady-state target cleavage rate” value turned out to be 0.0236 ± 0.0059.

As to UCCUGGAUCAGCUUGCUAUGUAUUUAGUAA, the “pre-steady-state target cleavage rate” value was 0.00634 ± 0.0034.

Turning to UCCUGGAUGUCGAACCAAUCUAUUUAGUUA, the “pre-steady-state target cleavage rate” value was less than 0.0001.

For the sequence UCCUGGUAGAGCUUGCAUAGUAUUUACAAA, the “pre-steady-state target cleavage rate” value came to 0.0287 ± 0.0094.

With UCCACCUACAGCUUCGAUAGUAUUUAGUUA, the “pre-steady-state target cleavage rate” value amounted to 0.571 ± 0.033.

On to UCCUGGAUGUCGAUGCAUAGUAUUUACUUA, for which the “pre-steady-state target cleavage rate” value came to 0.00979 ± 0.0041.

Turning to AGGACCUACAGCUUGCAUUCAAUUUAGUUA, the “pre-steady-state target cleavage rate” value worked out at 0.228 ± 0.083.

As to UCCUGCUACACGUUGCAUAGUAUUUAGAAA, the “pre-steady-state target cleavage rate” value is 0.109 ± 0.022.

For UCCUGGUACAGCUUGCAUUAGUAUUUAGUUA, the “pre-steady-state target cleavage rate” value came out at 0.00882 ± 0.006.

For UCCUGGAUGUCGUGGCAUAGUAUUUAGUUA, the “pre-steady-state target cleavage rate” value stood at 0.0123 ± 0.0034.

On to UCCUGGUACAGCUUCCAUAGUAUUUAGUUA, for which the “pre-steady-state target cleavage rate” value came to 0.00964 ± 0.0067.

As to UCGACCUACAGCUUGCAUAGUUUUUACAAA, the “pre-steady-state target cleavage rate” value came out at 0.239 ± 0.039.

In the case of UCGACCUACUCCUUGCAUAGUAUUUUCAAA, the “pre-steady-state target cleavage rate” value came to 0.253 ± 0.033.

Take UCCUGGAUGUGCUUGCAUAGUAUAUUGUUA: the “pre-steady-state target cleavage rate” value worked out at 0.0237 ± 0.0084.

For AGGACCUACAGCUUGCAUAGUAAAAAGUAA, the “pre-steady-state target cleavage rate” value came out at 0.39 ± 0.08.

With UCCUCGAACAGCUUGCAUAGUAUUUUCAAA, the “pre-steady-state target cleavage rate” value was 0.308 ± 0.04.

Consider UCCACCUACAGCUUGCAUAGUUAAUACAAA, for which the “pre-steady-state target cleavage rate” value was 0.0374 ± 0.014.

Take UCCACCUACAGCUUGCAUAGAUAUUAGUUA: the “pre-steady-state target cleavage rate” value was determined as 0.0481 ± 0.015.

As for UCCUGGAUGUGCUUGCUAUGUAUUUAGUUA, the “pre-steady-state target cleavage rate” value came out at 0.00387 ± 0.0032.

As to AGGACCUACAGCUUGCAUACAAUUUAGUAA, the “pre-steady-state target cleavage rate” value is 0.185 ± 0.069.

Consider UCCUGGUACAGCAUCCAUAGUAUUUAGUUA, for which the “pre-steady-state target cleavage rate” value was determined as 0.248 ± 0.059.

As to UCCUCCUAGUCCUUGCAUAGUAUUUACAAA, the “pre-steady-state target cleavage rate” value amounted to 0.115 ± 0.026.

Regarding UCGACCUACACGAUGCAUAGUAUUUAGAAA, the “pre-steady-state target cleavage rate” value turned out to be 0.192 ± 0.023.

As to UCCUGGAUGUGCUUCAUAGUAUUUAGUUA, the “pre-steady-state target cleavage rate” value is 0.105 ± 0.011.

In the case of UCCUGCUACAGCUUGCAUAGUAUUAUGAAA, the “pre-steady-state target cleavage rate” value stood at 0.214 ± 0.039.
